B1: GUCGGCC (DNA:RNA)
RNA: GGGAGACCGGAAUUCAGAUUGUCCGUCGGCCUUAAAUCCCGUCGUAGCCACCA
DNA 1: CAATCTGAATTCCGGTCTCCC
DNA 2: TGGTGGCTACGACGGGATT
B2: AAUCAAC (DNA:RNA)
RNA: B1 RNA with G25A, U26A, C27U, G28C, G29A, C30A
DNA 1: CAATCTGAATTCCGGTCTCCC
DNA 2: TGGTGGCTACGACGGGATT
B3: AGCCGUU (DNA:RNA)
RNA: B1 RNA with G25A, U26G, G28C, C30U, C31U
DNA 1: CAATCTGAATTCCGGTCTCCC
DNA 2: TGGTGGCTACGACGGGATT
B4: AAAUAGA (DNA:RNA)
RNA: GGGAGACCGGAAUUCAGAUUGUCCAAAUAGAUUAAAUCCCGUCGUAGCCACCA
DNA 1: CAATCTGAATTCCGGTCTCCC
DNA 2: TGGTGGCTACGACGGGATT
B5: UCCAUGU (DNA:RNA)
RNA: B4 RNA with A25U, A26C, A27C, U28A, A29U, A31U
DNA 1: CAATCTGAATTCCGGTCTCCC
DNA 2: TGGTGGCTACGACGGGATT
B6: ACCACUU (DNA:RNA)
RNA: B4 RNA with A26C, A27C, U28A, A29C, G30U, A31U
DNA 1: CAATCTGAATTCCGGTCTCCC
DNA 2: TGGTGGCTACGACGGGATT
B7: AAGCUGC (DNA:RNA)
RNA: B4 RNA with A27G, U28C, A29U, A31C
DNA 1: CAATCTGAATTCCGGTCTCCC
DNA 2: TGGTGGCTACGACGGGATT
B8: AAGCUUG (DNA:RNA)
RNA: B4 RNA with A27G, U28C, A29U, G30U, A31G
DNA 1: CAATCTGAATTCCGGTCTCCC
DNA 2: TGGTGGCTACGACGGGATT
B9: CCUCGUC (DNA:RNA)
RNA: B1 RNA with G25C, U26C, C27U, G28C, C30U
DNA 1: CAATCTGAATTCCGGTCTCCC
DNA 2: TGGTGGCTACGACGGGATT
B10: CUAGUAG (DNA:RNA)
RNA: B1 RNA with G25C, C27A, G29U, C30A, C31G
DNA 1: CAATCTGAATTCCGGTCTCCC
DNA 2: TGGTGGCTACGACGGGATT
B11: CACCUUA (DNA:RNA)
RNA: B4 RNA with A25C, A27C, U28C, A29U, G30U
DNA 1: CAATCTGAATTCCGGTCTCCC
DNA 2: TGGTGGCTACGACGGGATT
B12: AUCGCCU (DNA:RNA)
RNA: B1 RNA with G25A, G29C, C31U
DNA 1: CAATCTGAATTCCGGTCTCCC
DNA 2: TGGTGGCTACGACGGGATT
B13: AGCCUGA (DNA:RNA)
RNA: B4 RNA with A26G, A27C, U28C, A29U
DNA 1: CAATCTGAATTCCGGTCTCCC
DNA 2: TGGTGGCTACGACGGGATT
B14: UACCCUC (DNA:RNA)
RNA: B1 RNA with G25U, U26A, G28C, G29C, C30U
DNA 1: CAATCTGAATTCCGGTCTCCC
DNA 2: TGGTGGCTACGACGGGATT
B15: UCUGCGG (DNA:RNA)
RNA: B4 RNA with A25U, A26C, A27U, U28G, A29C, A31G
DNA 1: CAATCTGAATTCCGGTCTCCC
DNA 2: TGGTGGCTACGACGGGATT
B16: CACGUAG (DNA:RNA)
RNA: B1 RNA with G25C, U26A, G29U, C30A, C31G
DNA 1: CAATCTGAATTCCGGTCTCCC
DNA 2: TGGTGGCTACGACGGGATT
B17: ACACCAA (DNA:RNA)
RNA: B4 RNA with A26C, U28C, A29C, G30A
DNA 1: CAATCTGAATTCCGGTCTCCC
DNA 2: TGGTGGCTACGACGGGATT
B18: AUUUUAA (DNA:RNA)
RNA: B4 RNA with A26U, A27U, A29U, G30A
DNA 1: CAATCTGAATTCCGGTCTCCC
DNA 2: TGGTGGCTACGACGGGATT
B19: CAAACAG (DNA:RNA)
RNA: B4 RNA with A25C, U28A, A29C, G30A, A31G
DNA 1: CAATCTGAATTCCGGTCTCCC
DNA 2: TGGTGGCTACGACGGGATT
B20: CGAUACU (DNA:RNA)
RNA: B4 RNA with A25C, A26G, G30C, A31U
DNA 1: CAATCTGAATTCCGGTCTCCC
DNA 2: TGGTGGCTACGACGGGATT

Where a chain is given by its changes, count along the chain named. Some of the results follow.

This assay addresses T1, RBFOX1 RRM (Homo sapiens, UniProt Q9NWB1 109-208).
T1 sequence: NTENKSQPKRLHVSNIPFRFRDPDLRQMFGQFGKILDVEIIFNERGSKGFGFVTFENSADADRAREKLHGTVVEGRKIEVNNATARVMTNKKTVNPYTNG
As to the kind of experiment: EMSA; HiTS-Eq, 1 nM pool, 10 min; buffer printed only for the single-RNA assays: 10 mM Tris pH 7.5, 150 mM NaCl, 3.4 mM EDTA, 0.001% NP-40, 30 C. As to conditions: tags: His6 N-terminal (pET28a); label: 5' 32P. Put shortly: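 Purified RbFox RRM, wild type or mutant, was incubated for 10 min in 50 µL with 1 nM of a 5′-radiolabelled RNA pool carrying 7 randomized nucleotides, whose flanks were annealed to DNA oligonucleotides, over a series of increasing protein concentrations. Unbound RNA was resolved on 8% native PAGE, cut out, reverse-transcribed, barcoded by PCR and sequenced on an Illumina HiSeq 2500. Relative association constants were derived from changes in read counts for each RNA species versus the control reaction and normalised to the cognate motif.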
(In EMSA bound probe runs differently from free probe, usually more slowly.)
With B1, the binding signal is 0.0169 KA relative to UGCAUGU.
The value for B2 was 0.000441 KA relative to UGCAUGU; that for B3 was 0.00587 KA relative to UGCAUGU; that for B4 was 0.00419 KA relative to UGCAUGU.
With B5 the figure was 0.00752 KA relative to UGCAUGU; with B6, 0.00384 KA relative to UGCAUGU; with B7, 0.00602 KA relative to UGCAUGU.
Regarding B8, the binding signal is 0.0197 KA relative to UGCAUGU.
With B9 the figure was 0.00752 KA relative to UGCAUGU; with B10, 0.00793 KA relative to UGCAUGU; with B11, 0.00249 KA relative to UGCAUGU.
The value for B12 was 0.00212 KA relative to UGCAUGU; that for B13 was 0.021 KA relative to UGCAUGU.
B14: the binding signal was 0.00756 KA relative to UGCAUGU.
The value for B15 was 0.0178 KA relative to UGCAUGU; that for B16 was 0.0088 KA relative to UGCAUGU; that for B17 was 0.000683 KA relative to UGCAUGU.
For B18, the binding signal is 0.00236 KA relative to UGCAUGU.
The value for B19 was 0.000699 KA relative to UGCAUGU; that for B20 was 0.00565 KA relative to UGCAUGU.

The values are drawn from paper PMC9911399, “Two distinct binding modes provide the RNA-binding protein RbFox with extraordinary sequence specificity”.
